Experimental data from PubChem BioAssay AID652104 (National Center for Advancing Translational Sciences (NCATS), 2013).
In all, about 410,000 compounds went through this assay and about 7,200 (1.8%) were called active. The inconclusive results got no clear call from the source; some entries with a clear call stand among them for comparison. Calls follow the shape of the dose curve; as a rule, active = well fitted activation curve with a large enough effect; inconclusive = small, poorly fitted or top-dose-only effect, or another doubt; inactive = no such curve, though single readings can be large or run the other way. Potencies of inconclusive entries are left out as doubtful fits.

test: qHTS of TDP-43 Inhibitors; conditions: TDP-43 expressing yeast growth rescue, BacTiter-Glo, 24 h; series mostly up to 46.1 µM; also: nearly all actives have a fitted effect of over 50% in size
Outline: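 Luminescence from BacTiter-Glo reports growth of TDP-43-expressing yeast after 24 hr at 30 deg C with compound. Cells were raffinose-pregrown to mid-log, then seeded in galactose medium at OD600=0.02.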
Potency is read from the fitted curve at half-maximal effect; tags tell the direction and shape of the fitted curve.

Row | SMILES | Potency
1 | N#Cc1c(N2CCN(C(=O)c3ccco3)CC2)nc(-c2ccccc2)c2c1CCCC2 | inconclusive [activator, single point]
2 | O=[N+]([O-])c1ccc(/C=N\NS(=O)(=O)c2ccc(F)cc2)o1 | inconclusive [activator, partial curve]
3 | CCCOc1ccc(C(=O)N2CCC(c3nc4ccccc4s3)CC2)cc1 | inconclusive [activator, single point]
4 | CCc1ccc(NC(=O)N2CCN(C(=O)C3CCCO3)CC2)cc1 (centres undefined) | inconclusive [activator, partial curve, poor fit]
5 | O=C(COC(=O)Cc1cccc(F)c1)NCCc1ccccc1 | inconclusive [activator, partial curve, poor fit]
6 | N#CCc1cccnc1Sc1ccc(Cl)cc1 | inconclusive [activator, partial curve]
7 | Cc1ccc(NS(=O)(=O)c2ccc(C(=O)N3CCN(S(=O)(=O)c4ccccc4)CC3)cc2)cc1 | inactive
8 | Cc1ccc2ncnc(-c3ccccc3)c2c1 | inactive
9 | CC1(C(=O)NS(=O)(=O)Cc2ccccc2)CCN1C(=O)Cc1ccc(-c2ccccc2)cc1 (centres undefined) | inconclusive [activator, partial curve, poor fit]
10 | N/C(=N\OS(=O)(=O)c1ccccc1)c1ccncc1 | inconclusive [activator, partial curve]
11 | Cc1ccc(S(=O)(=O)NCc2ccc3[nH]c(C)cc3c2)cc1 | inconclusive [activator, single point]
12 | Cc1ccccc1-c1coc2cc(O)ccc2c1=O | inconclusive [activator, partial curve, poor fit]
13 | CCCC(NC(=S)NCC1CCCO1)C12CC3CC(CC(C3)C1)C2 (centres undefined) | inconclusive [activator, single point]
14 | Cc1ccc(CSCC(=O)Nc2ccc(F)cc2)cc1 | inconclusive [activator, partial curve]
15 | Cc1ccc(Nc2nc(-c3ccc(O)cc3O)cs2)nc1 | active: 20 µM
16 | Cc1cc(C)cc(C(=O)NCCc2sc(-c3ccc(F)cc3)nc2C)c1 | inactive
17 | Cc1ccc(-c2c(NC(=O)c3ccco3)oc3ccccc3c2=O)cc1 | inconclusive [activator, single point]
18 | C[C@H](c1ccccc1)N1C[C@@H](COCc2ccccc2)Oc2cc(N3CC[C@@H](O)C3)ccc2S1(=O)=O | active: 28.2 µM
19 | Cc1ccc(Sc2ncccc2COC(=O)Nc2c(C)cccc2C)cc1 | inconclusive [activator, single point]
